Converted amounts (≈) assume the structure as drawn. Where two headings read alike, the source gives them in different places.
Columns and labels:
[1] = CLND kinetic solubility assay; assay type: physicochemical; settings: phosphate buffered saline, pH 7.4, aqueous buffer, kinetic from dmso stock; Measured; read-out: Aq Sol
Description: 5 µL of 10 mM DMSO stock solution was diluted to 100 µL with pH 7.4 phosphate buffered saline, equilibrated for 1 hour at room temperature, filtered through Millipore MultiscreenHTS-PCF filter plates (MSSL BPC). The filtrate was quantified by suitably calibrated flow injection Chemi-Luminescent Nitrogen Detection.

Cytochrome P450 (CYP450) = Cytochrome P450 (CYP450) (Homo sapiens, UniProt P08684); experiment: Cytochrome P450 inhibition profile; assay type: in vitro ADME; settings: Measured
Description: The P450 inhibition profile of the inhibitors was determined as previously described.

ChromlogD assay = experiment: ChromlogD assay
Description: The Chromatographic Hydrophobicity Index (CHI)[22] values were measured using reversed phase HPLC column (Luna C18 (2), Phenomenex, UK) with a fast acetonitrile gradient at starting mobile phase of pH = 7.4. CHI values are derived directly from the gradient retention times by using a calibration line obtained for standard compounds. The CHI value approximates to the volume % organic concentration when the compound elutes. […] The average error of the assay is ±3 CHI unit or ±0.25 ChromlogD.

[2] = tested on: T. brucei brucei parasites (Lister 427 strain); experiment: Dose response growth inhibition assay (resazurin, 72 h); assay type: cell-based; settings: Trypanosoma brucei; T. b. brucei growth inhibition; read-out: Tbb pEC50 (converted)
Description: Greiner sterile black clear bottom 384-well assay plates were pre-dispensing with 200 nL of compound in each well, from master plates at 1 mM (100% DMSO) containing selection from the GSK compound collection. Controls of 0% response (control 1, 200 nL of 100%DMSO) and 100% response (control 2, 200 nL of 1 mM pentamidine) were included in each assay plate in columns 6 and 18, respectively. Plates containing 200 nL of 100% DMSO were included randomly in the assay, to assess quality through all process. […] After this period, 10 µL of 200 µM resazurin solution in prewarmed HMI-9 were added to each well, and plates were allowed to incubate 2 hours more prior fluorescence reading in a Wallac EnVision Multilabel Plate Reader (Perkin-Elmer). Raw fluorescent data from the Envision plate reader were uploaded into GSK HTS database (ActivityBase). Activity of each well was normalized as a percentage of inhibition per-plate basis using the following equation: [drawing 1]
For dose-response experiments, serial compound dilutions of selected hits from the primary campaign were plotted against compound concentration. Dose response master plates were prepared by 3-fold dilutions (starting with 10 mM DMSO stock solutions), providing 11 concentrations. From these master plates, 200 nL per well was stamped in final assay plates, including the same controls describe in the primary single shot assay. […]

[3] = biological target: T1, Human Serum Albumin (HSA) (Homo sapiens, UniProt P02768); experiment: Protein binding assay (HPLC stationary phase), HSA; assay type: in vitro ADME; settings: Measured
T1 construct: purchased Chiral Technologies, France
Description: Chemically bonded Human Serum Albumin (HSA) and Alpha-1-acidglycoprotein HPLC stationary phases (Chiral Technologies, France) were used for measuring compounds' binding to plasma proteins, applying linear gradient elution up to 30% iso-propanol. The run time was 6 min, including the re-equilibration of the stationary phases with the 50 mM pH7.4 ammonium acetate buffer. The obtained gradient retention times were standardised using a calibration set of mixtures as described in the references. The average standard error of the assay depends on the binding strength and kinetics of the compounds.

[4] = GSK in-house artificial membrane permeability assay; assay type: in vitro ADME; settings: PAMPA, pH 7.4, Measured
Description: 250 µL and 100 µL 50 mM phosphate buffer pH 7.4 with 0.5% encapsin was applied to the donor and receiver compartments, respectively. 2.5 µL of a 10 mM stock solution of compound in DMSO was added to the donor compartment. The assay was incubated at RT for 3 hours. […] The permeability (logPapp) measures how fast molecules pass through the lipid membrane is expressed in nm/s.

[5] = CYP3A4, VG substrate, read-out: CYP3A4VG pXC50 (converted)
[6] = CYP3A4, VR substrate, read-out: CYP3A4VR pXC50 (converted)

With O=C(c1ccc(-c2ccnc(NCCc3ccc(O)cc3)n2)s1)N1CCNCC1 [NEU-0001172] the solubility kinetic at 1 h [1] was 71 µM (≈ 29.1 µg/mL), the IC50 (Cytochrome P450 (CYP450); [5]) was 39.8 µM and the IC50 (Cytochrome P450 (CYP450); [6]) was 10 µM. The PFI (ChromlogD assay) was 5.12, the EC50 [2] was 79.4 nM and the HSA % binding [3] was 94.35%.
In the case of NCC(Cc1ccccc1)C(=O)Nc1ncc(-c2c[nH]c3ncccc23)s1 (centres unmarked) [NEU-0001239], the Papp at 3 h, 100 µM [4] is reported as 4.2 ×10⁻⁶ cm/s, the solubility kinetic at 1 h [1] is reported as 113 µM (≈ 42.7 µg/mL) and the IC50 (Cytochrome P450 (CYP450); [5]) is reported as 5.01 µM. The IC50 (Cytochrome P450 (CYP450); [6]) was 3.98 µM, the PFI (ChromlogD assay) was 6.23 and the HSA % binding [3] was 96.6%.
In the case of O[C@H]1CC[C@H](Nc2cccc(Nc3nc4ccc(-c5ccncc5)cc4s3)n2)CC1 [NEU-0001115], the solubility kinetic at 1 h [1] is reported as 2 µM (≈ 0.835 µg/mL), the IC50 (Cytochrome P450 (CYP450); [5]) is reported as 0.0251 µM and the IC50 (Cytochrome P450 (CYP450); [6]) is reported as 0.00794 µM. For the same compound, the EC50 [2] was 39.8 nM and the HSA % binding [3] was 96.86%.

From publication PMC4207660, “Identification and Characterization of Hundreds of Potent and Selective Inhibitors of Trypanosoma brucei Growth from a Kinase-Targeted Library Screening Campaign” (PLoS Neglected Tropical Diseases, 2014)
